# Laboratory results reported in the supplement of paper PMC6135742.
# Where a name gives a salt, the structure may show the parent alone. ± gives the standard deviation of the averaged measurements. Whole data set: some 2,600 compounds, median “total cell number (DAPI+ nuclei) relative to DMSO vehicle control” near -1.4, cut for the lowest 2% near -23. Some of the results follow.
# Tested on: jimpy (Plp1 jimpy) mouse iPSC-derived oligodendrocyte progenitor cells
# Experiment: total cell number (DAPI+ nuclei) relative to DMSO vehicle control (SDs above negative control mean); higher = more surviving cells
# Conditions: 10 µM; 3 days
row,Compound,total cell number
1,O=C(COc1cccc2c(=O)[nH]ccc12)c1ccccc1,-0.123
2,O=C(O)Cn1c(C(=O)Nc2nc(-c3ccccc3Cl)cs2)cc2ccccc21,-1.71
3,CNCCNS(=O)(=O)c1cccc2cnccc12 [H-8 dihydrochloride],-1.59
4,CCN(CC)CCCC(C)Nc1ccnc2cc(Cl)ccc12 (stereo not drawn) [Chloroquine diphosphate],-3.23
5,CS(=O)(=O)c1ccc([C@@H](O)[C@@H](CF)NC(=O)C(Cl)Cl)cc1 [Florfenicol],1.1
6,CN1CCC(=C2c3ccccc3C=Cc3ccccc32)CC1 [Cyproheptadine hydrochloride],-6.41
7,CN1CCC(=C2c3ccccc3C=Cc3ccccc32)CC1 [Cyproheptadine HCl],-8.37
8,NCC(O)C1CCCCCCC1 (stereo not drawn) [2-Cyclooctyl-2-hydroxyethylamine hydrochloride],-0.1
9,N=C(N)NC(=N)NCCc1ccccc1 [Phenformin HCl],2.53
10,CO[C@H]1/C=C/O[C@@]2(C)Oc3c(C)c(O)c4c(O)c(c(/C=N/N5CCN(C6CCCC6)CC5)c(O)c4c3C2=O)NC(=O)/C(C)=C\C=C\[C@H](C)[C@H](O)[C@@H](C)[C@@H](O)[C@@H](C)[C@H](OC(C)=O)[C@@H]1C [Rifapentine],-3.26
11,CC(C)(C=O)Cc1cc(C(C)(C)C)c(O)c(C(C)(C)C)c1,0.433
12,C[C@H]1O[C@H](O[C@H]2[C@H](O)[C@@H](O)[C@@H](O[C@H]3[C@H](O)[C@@H](O)C(O)O[C@@H]3CO)O[C@@H]2CO)[C@H](O)[C@@H](O)[C@@H]1N[C@H]1C=C(CO)[C@@H](O)[C@H](O)[C@H]1O (stereo partly drawn) [Acarbose],-3.41
13,CNC1CCCN(c2c(F)cc3c(=O)c(C(=O)O)cn(C4CC4)c3c2OC)C1 (stereo not drawn) [Balofloxacin],-0.259
14,NC1(C(=O)O)CCCCC1 [1-Amino-1-cyclohexanecarboxylic acid hydrochloride],-1.3
15,C=C1CC[C@H](O)C/C1=C/C=C1\CCC[C@]2(C)[C@@H]([C@H](C)CCCC(C)C)CC[C@@H]12 [Vitamin D3],-0.478
16,NNCCc1ccccc1 [Phenelzine sulfate],-0.6
17,CC(C)(O)[C@H]1CC[C@@](C)([C@H]2[C@@H](O)C[C@@]3(C)[C@@H]4C[C@H](O[C@@H]5O[C@H](CO)[C@@H](O)[C@H](O)[C@H]5O)[C@H]5C(C)(C)[C@@H](O[C@@H]6OC[C@@H](O)[C@H](O)[C@H]6O)CC[C@@]56C[C@@]46CC[C@]23C)O1 [Astragaloside A],-0.31
18,CC(C)(C)NCC(O)COc1cccc2[nH]c(=O)[nH]c12 (racemic),-0.745
19,CCCc1cc(C(N)=S)ccn1 [Protionamide],-0.33
20,C#Cc1cccc(Nc2ncnc3cc(OC)c(OCCCCCCC(=O)NO)cc23)c1,-18.7
21,CC(=O)S[C@@H]1CC2=CC(=O)CC[C@]2(C)[C@H]2CC[C@@]3(C)[C@@H](CC[C@@]34CCC(=O)O4)[C@H]12 [Spironolactone],-1.48 ± 1.4
22,O=C(O)[C@]1(Cc2cccc(Nc3nccs3)n2)CC[C@@H](Oc2cccc(Cl)c2F)CC1,-4.55
23,CC(=O)Nc1ccc(C(=O)Nc2ccccc2N)cc1 [CI994 (Tacedinaline)],-6.95
24,COc1cc2c(Nc3ccc(NC(=O)c4ccccc4)cc3)ncnc2cc1OCCCN1CCOCC1,-26.6
25,CC(C)(C)c1cnc(CSc2cnc(NC(=O)C3CCNCC3)s2)o1,-22.9
26,COc1ccc(-c2cc(=O)c3c(O)c(OC)c(OC)cc3o2)cc1O [Eupatorin],-8.23

row,Compound,total cell number
1,CCN[C@H]1CN(CCCOC)S(=O)(=O)c2sc(S(N)(=O)=O)cc21 [Brinzolamide],-1.41 ± 1
2,CC(C)c1c(C(=O)Nc2ccccc2)c(-c2ccccc2)c(-c2ccc(F)cc2)n1CC[C@@H](O)C[C@@H](O)CC(=O)O [Atorvastatin Calcium],-8.47
3,CC(C)c1c(C(=O)Nc2ccccc2)c(-c2ccccc2)c(-c2ccc(F)cc2)n1CC[C@@H](O)C[C@@H](O)CC(=O)O [Atorvastatin calcium salt trihydrate],-4.46
4,CN(C)CCC(c1ccc(Cl)cc1)c1ccccn1 (racemic) [Chlorpheniramine Maleate],-2.4
5,CN(C)CCC(c1ccc(Cl)cc1)c1ccccn1 (racemic) [(±)-Chlorpheniramine maleate],-2.22
6,COC(=O)Nc1nc2cc(C(=O)c3cccs3)ccc2[nH]1 [Nocodazole],-5.46 ± 0.78
7,CC(=Cc1ccc(C(=O)O)cc1)c1ccc2c(c1)C(C)(C)CCC2(C)C,-1.34
8,COc1cc(Br)c(Nc2nc(-c3c(C)nc4ncccn34)cs2)c(Br)c1,-13
9,O=C(O)CCCCCCCC(=O)O [Azelaic acid],-1.13
10,OCCN1CCN(CC/C=C2/c3ccccc3Sc3ccc(C(F)(F)F)cc32)CC1 [cis-(Z)-Flupenthixol dihydrochloride],-7.96
11,COc1cc2ncnc(Sc3nnc(C)s3)c2cc1OC,-13.4
12,Cc1cn[nH]c1 [4-Methylpyrazole hydrochloride],0.966
13,Cc1ccc(S(=O)(=O)c2ccc([N+](=O)[O-])o2)cc1,-16.4
14,OC(Cn1cncn1)(Cn1cncn1)c1ccc(F)cc1F [Fluconazole],4.46
15,NCCc1c[nH]cn1 [Histamine 2HCl],-1.12
16,NCCc1c[nH]cn1 [Histamine dihydrochloride],-0.826
17,CC[N+](C)(C)c1cccc(O)c1 [Edrophonium chloride],-1.85
18,Nc1[nH]cnc2ncnc1-2 [Adenine HCl],-0.0804
19,C[C@@H](NCCCc1cccc(C(F)(F)F)c1)c1cccc2ccccc12 [Cinacalcet HCl],-17.8
20,CC(=O)Nc1cccc(-n2c(=O)n(C3CC3)c(=O)c3c(Nc4ccc(I)cc4F)n(C)c(=O)c(C)c32)c1,-7.48
21,C#CC(N)CCC(=O)O (stereo not drawn) [gamma-Acetylinic GABA],-0.506
22,COc1c(C)c(C(=O)c2ccc(N)c(C(=O)O)c2)n2ccccc12,0.936
23,COc1ccc(-c2ccc3c(N4CCOC[C@@H]4C)nc(N4CCOC[C@@H]4C)nc3n2)cc1CO,-13.1
24,COc1cc(C(=O)OCCCN2CCCN(CCCOC(=O)c3cc(OC)c(OC)c(OC)c3)CC2)cc(OC)c1OC [Dilazep hydrochloride],-5.8
25,N=C(NC(=O)c1nc(Cl)c(N)nc1N)Nc1ccccc1 [Phenamil methanesulfonate],-2.73
26,COc1ccc([C@@H]2CC(=O)c3c(O)cc(O)cc3O2)cc1O [Hesperetin],-0.778

row,Compound,total cell number
1,CN(C)CCCN1c2ccccc2Sc2ccc(C(F)(F)F)cc21 [Triflupromazine hydrochloride],-8.64
2,O=C1NC(=O)c2c1c(-c1ccccc1)cc1[nH]c3ccc(O)cc3c21,-9.61
3,Nc1c(CC(=O)O)cccc1C(=O)c1ccccc1 [Amfenac Sodium Monohydrate],2.67
4,Oc1cc(O)c2c(c1)O[C@H](c1ccc(O)c(O)c1)[C@@H](O)C2 [(+)-Catechin Hydrate],-0.819
5,CC(=O)Oc1ccccc1C(=O)Nc1ncc([N+](=O)[O-])s1 [Nitazoxanide],-0.866
6,NC(=O)c1ccc(N(C(N)=O)c2c(F)cccc2F)nc1-c1ccc(F)cc1F,0.454
7,C[N+]1(C)CCC(OC(=O)C(c2ccccc2)c2ccccc2)CC1 [4-DAMP methiodide],2.32
8,C[N+]1(C)CCC(OC(=O)C(c2ccccc2)c2ccccc2)CC1,-0.239
9,CCCc1cc(C)[nH]c(=O)c1CNC(=O)c1cc(-c2ccc(N3CCN(C(C)C)CC3)nc2)cc2c1cnn2C(C)C,-13.3
10,CC(N/C(=N\C#N)Nc1ccncc1)C(C)(C)C (stereo not drawn) [Pinacidil],0.255
11,CCN(CC)CCOC(=O)C1(C2CCCCC2)CCCCC1 [Dicyclomine hydrochloride],1.75
12,"O=c1cc(-c2ccccc2)oc2c(O)c(O)ccc12 [7,8-Dihydroxyflavone hydrate]",0.407
13,CN1CCN(C2=Nc3ccccc3Oc3ccc(Cl)cc32)CC1 [Loxapine Succinate],-4.24
14,CN1CCN(C2=Nc3ccccc3Oc3ccc(Cl)cc32)CC1 [Loxapine succinate],-2.84
15,CC(C)CC(N)=O [Isovaleramide],0.518
16,COc1c2occc2cc2ccc(=O)oc12 [Methoxsalen],-1.76
17,O=C(Nc1cccc(Cl)c1)c1ccccn1,-2.66
18,N#Cc1ccc(C(c2ccc(C#N)cc2)n2cncn2)cc1 [Letrozole],-0.0169
19,CN(C)C(=O)Nc1cccc(-c2ccc(N(C)C)cc2)c1 [Atglistatin],4.29
20,Clc1ccc(CCC(Cn2ccnc2)Sc2c(Cl)cccc2Cl)cc1 (stereo not drawn) [Butoconazole nitrate],1.6
21,C[C@@]1(C(=O)Nc2ccc(F)nc2)CCCN1c1nc(Nc2cc(C3CC3)n[nH]2)c2cccn2n1,-24.7
22,Cc1cc2c(cc1CC(=O)c1sccc1S(=O)(=O)Nc1onc(C)c1Cl)OCO2 [Sitaxentan sodium],0.886
23,C[C@@H]1C[C@H]2[C@@H]3C[C@H](F)C4=CC(=O)C=C[C@]4(C)[C@@]3(F)[C@@H](O)C[C@]2(C)[C@@]1(O)C(=O)CO [Flumethasone],4.79
24,O=C(NC[C@H]1CN(c2ccc(N3CCOCC3=O)cc2)C(=O)O1)c1ccc(Cl)s1 [Rivaroxaban],-1.17
25,CC[C@H](/C=C/[C@@H](C)[C@H]1CC[C@H]2[C@@H]3CC=C4C[C@@H](O)CC[C@]4(C)[C@H]3CC[C@]12C)C(C)C [Stigmasterol],-0.837
26,O=C(O)c1cn(-c2ccc(F)cc2)c2cc(N3CCNCC3)c(F)cc2c1=O [Sarafloxacin HCl],1.78
